The list shows a part of the results. The list includes weakly bound sequences.
What follows are sequences tested against T1, MBP-FoxP3dN (UniProt Q99JB6) (assay: PD-seq (MBP pull-down with sequencing)). Settings: 20 mM Tris-HCl pH 7.5, 100 mM NaCl, 1.5 mM MgCl2, 0.4 uM protein, 0.1 uM dsDNA library, 30 min, room temperature, amylose pull-down; high values mean tight binding; double strand, one strand shown.
T1 sequence: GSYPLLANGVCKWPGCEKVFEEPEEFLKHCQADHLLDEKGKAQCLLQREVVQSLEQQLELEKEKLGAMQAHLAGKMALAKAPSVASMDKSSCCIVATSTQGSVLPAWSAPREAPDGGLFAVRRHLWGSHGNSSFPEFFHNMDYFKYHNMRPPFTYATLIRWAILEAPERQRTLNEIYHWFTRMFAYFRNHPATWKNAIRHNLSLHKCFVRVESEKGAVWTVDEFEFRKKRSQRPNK
With “GATGATTGTTCTCCCAGCTGATGAATTATCCCGATCGAGTAAACAAATTTTCCTAATCTTTCTGTTCAAGCGCCATCTAC” the binding signal (RPM ratio (pull-down/input)) was 0.198. With “GATGATTGTTCTCCCAGCTGATGAATTGCGTAACTCGAGTAAACAAATTTTCCTAATCTTTCTGTTCAAGCGCCATCTAC” the binding signal (RPM ratio (pull-down/input)) was 2.16. “GATGATTGTTCTCCCAGCTGATGAATTGGAAATATCGAGTAAACAAATTTTCCTAATCTTTCTGTTCAAGCGCCATCTAC” showed a binding signal (RPM ratio (pull-down/input)) of 0.346. “GATGATTGTTCTCCCAGCTGATGAATTTCCGAATTCGAGTAAACAAATTTTCCTAATCTTTCTGTTCAAGCGCCATCTAC” was tested, and the binding signal (RPM ratio (pull-down/input)) was 0.72. Sequence “GATGATTGTTCTCCCAGCTGATGAATTATGCTACTCGAGTAAACAAATTTTCCTAATCTTTCTGTTCAAGCGCCATCTAC” has a binding signal (RPM ratio (pull-down/input)) of 2.64. “GATGATTGTTCTCCCAGCTGATGAATTGCGACGATCGAGTAAACAAATTTTCCTAATCTTTCTGTTCAAGCGCCATCTAC” gave a binding signal (RPM ratio (pull-down/input)) of 0.544. Sequence “GATGATTGTTCTCCCAGCTGATGAATTTAAATGTTCGAGTAAACAAATTTTCCTAATCTTTCTGTTCAAGCGCCATCTAC” has a binding signal (RPM ratio (pull-down/input)) of 0.813. Sequence “GATGATTGTTCTCCCAGCTGATGAATTCGGTTGTTCGAGTAAACAAATTTTCCTAATCTTTCTGTTCAAGCGCCATCTAC” has a binding signal (RPM ratio (pull-down/input)) of 4.55. “GATGATTGTTCTCCCAGCTGATGAATTCTAGTACTCGAGTAAACAAATTTTCCTAATCTTTCTGTTCAAGCGCCATCTAC” showed a binding signal (RPM ratio (pull-down/input)) of 0.444. In the case of “GATGATTGTTCTCCCAGCTGATGAATTAGCTCTGTCGAGTAAACAAATTTTCCTAATCTTTCTGTTCAAGCGCCATCTAC”, the binding signal (RPM ratio (pull-down/input)) was 0.279. Work on “GATGATTGTTCTCCCAGCTGATGAATTCGCCACTTCGAGTAAACAAATTTTCCTAATCTTTCTGTTCAAGCGCCATCTAC” yielded a binding signal (RPM ratio (pull-down/input)) of 1.71. For “GATGATTGTTCTCCCAGCTGATGAATTTTCCTCGTCGAGTAAACAAATTTTCCTAATCTTTCTGTTCAAGCGCCATCTAC”, the binding signal (RPM ratio (pull-down/input)) was 0.231. In the case of “GATGATTGTTCTCCCAGCTGATGAATTCTGGGACTCGAGTAAACAAATTTTCCTAATCTTTCTGTTCAAGCGCCATCTAC”, the binding signal (RPM ratio (pull-down/input)) was 0.335. Work on “GATGATTGTTCTCCCAGCTGATGAATTGAGTCACTCGAGTAAACAAATTTTCCTAATCTTTCTGTTCAAGCGCCATCTAC” yielded a binding signal (RPM ratio (pull-down/input)) of 0.806. Sequence “GATGATTGTTCTCCCAGCTGATGAATTGTGGCCTTCGAGTAAACAAATTTTCCTAATCTTTCTGTTCAAGCGCCATCTAC” has a binding signal (RPM ratio (pull-down/input)) of 2.55. Sequence “GATGATTGTTCTCCCAGCTGATGAATTGGACCTGTCGAGTAAACAAATTTTCCTAATCTTTCTGTTCAAGCGCCATCTAC” has a binding signal (RPM ratio (pull-down/input)) of 0.265. “GATGATTGTTCTCCCAGCTGATGAATTAGTATCTTCGAGTAAACAAATTTTCCTAATCTTTCTGTTCAAGCGCCATCTAC” showed a binding signal (RPM ratio (pull-down/input)) of 2.31. “GATGATTGTTCTCCCAGCTGATGAATTTAAGCTGTCGAGTAAACAAATTTTCCTAATCTTTCTGTTCAAGCGCCATCTAC” was tested, and the binding signal (RPM ratio (pull-down/input)) was 0.345. With “GATGATTGTTCTCCCAGCTGATGAATTCTTATCCTCGAGTAAACAAATTTTCCTAATCTTTCTGTTCAAGCGCCATCTAC” the binding signal (RPM ratio (pull-down/input)) was 0.237. Sequence “GATGATTGTTCTCCCAGCTGATGAATTGCTAGTCTCGAGTAAACAAATTTTCCTAATCTTTCTGTTCAAGCGCCATCTAC” has a binding signal (RPM ratio (pull-down/input)) of 0.843. “GATGATTGTTCTCCCAGCTGATGAATTAGTTTATTCGAGTAAACAAATTTTCCTAATCTTTCTGTTCAAGCGCCATCTAC” gave a binding signal (RPM ratio (pull-down/input)) of 5.28. For “GATGATTGTTCTCCCAGCTGATGAATTATTAAGTTCGAGTAAACAAATTTTCCTAATCTTTCTGTTCAAGCGCCATCTAC”, the binding signal (RPM ratio (pull-down/input)) was 0.341. Sequence “GATGATTGTTCTCCCAGCTGATGAATTTAGTCATTCGAGTAAACAAATTTTCCTAATCTTTCTGTTCAAGCGCCATCTAC” has a binding signal (RPM ratio (pull-down/input)) of 1.33. With “GATGATTGTTCTCCCAGCTGATGAATTAACCACGTCGAGTAAACAAATTTTCCTAATCTTTCTGTTCAAGCGCCATCTAC” the binding signal (RPM ratio (pull-down/input)) was 0.277. For “GATGATTGTTCTCCCAGCTGATGAATTGAATCGATCGAGTAAACAAATTTTCCTAATCTTTCTGTTCAAGCGCCATCTAC”, the binding signal (RPM ratio (pull-down/input)) was 0.276. “GATGATTGTTCTCCCAGCTGATGAATTGACTAGATCGAGTAAACAAATTTTCCTAATCTTTCTGTTCAAGCGCCATCTAC” showed a binding signal (RPM ratio (pull-down/input)) of 0.235. “GATGATTGTTCTCCCAGCTGATGAATTTGCGGTCTCGAGTAAACAAATTTTCCTAATCTTTCTGTTCAAGCGCCATCTAC” showed a binding signal (RPM ratio (pull-down/input)) of 1.58. With “GATGATTGTTCTCCCAGCTGATGAATTTGGCTTGTCGAGTAAACAAATTTTCCTAATCTTTCTGTTCAAGCGCCATCTAC” the binding signal (RPM ratio (pull-down/input)) was 3.11. For “GATGATTGTTCTCCCAGCTGATGAATTTTTGTCCTCGAGTAAACAAATTTTCCTAATCTTTCTGTTCAAGCGCCATCTAC”, the binding signal (RPM ratio (pull-down/input)) was 0.301. “GATGATTGTTCTCCCAGCTGATGAATTATGCAGATCGAGTAAACAAATTTTCCTAATCTTTCTGTTCAAGCGCCATCTAC” gave a binding signal (RPM ratio (pull-down/input)) of 0.865. Work on “GATGATTGTTCTCCCAGCTGATGAATTCATCAAGTCGAGTAAACAAATTTTCCTAATCTTTCTGTTCAAGCGCCATCTAC” yielded a binding signal (RPM ratio (pull-down/input)) of 0.256. With “GATGATTGTTCTCCCAGCTGATGAATTAACAAAATCGAGTAAACAAATTTTCCTAATCTTTCTGTTCAAGCGCCATCTAC” the binding signal (RPM ratio (pull-down/input)) was 0.327. Sequence “GATGATTGTTCTCCCAGCTGATGAATTACCCGGTTCGAGTAAACAAATTTTCCTAATCTTTCTGTTCAAGCGCCATCTAC” has a binding signal (RPM ratio (pull-down/input)) of 0.221. “GATGATTGTTCTCCCAGCTGATGAATTTTATTAATCGAGTAAACAAATTTTCCTAATCTTTCTGTTCAAGCGCCATCTAC” was tested, and the binding signal (RPM ratio (pull-down/input)) was 0.755. In the case of “GATGATTGTTCTCCCAGCTGATGAATTGCAATGGTCGAGTAAACAAATTTTCCTAATCTTTCTGTTCAAGCGCCATCTAC”, the binding signal (RPM ratio (pull-down/input)) was 1.25. “GATGATTGTTCTCCCAGCTGATGAATTAGAGCACTCGAGTAAACAAATTTTCCTAATCTTTCTGTTCAAGCGCCATCTAC” was tested, and the binding signal (RPM ratio (pull-down/input)) was 0.377. With “GATGATTGTTCTCCCAGCTGATGAATTAAATTCGTCGAGTAAACAAATTTTCCTAATCTTTCTGTTCAAGCGCCATCTAC” the binding signal (RPM ratio (pull-down/input)) was 0.386. Sequence “GATGATTGTTCTCCCAGCTGATGAATTAGATGCTTCGAGTAAACAAATTTTCCTAATCTTTCTGTTCAAGCGCCATCTAC” has a binding signal (RPM ratio (pull-down/input)) of 1.96. In the case of “GATGATTGTTCTCCCAGCTGATGAATTGGCCATCTCGAGTAAACAAATTTTCCTAATCTTTCTGTTCAAGCGCCATCTAC”, the binding signal (RPM ratio (pull-down/input)) was 0.721. Work on “GATGATTGTTCTCCCAGCTGATGAATTAGGACACTCGAGTAAACAAATTTTCCTAATCTTTCTGTTCAAGCGCCATCTAC” yielded a binding signal (RPM ratio (pull-down/input)) of 1.22.

From publication PMC12820563
